Measured values as given in PubChem BioAssay AID1240 (Sanford-Burnham Center for Chemical Genomics, 2008).
Out of some 50,000 compounds screened, about 800 (1.6%) showed an effect of 50% or more. The list shows a part of the results.

target: Bcl-2-like protein 10 (Homo sapiens) (UniProt Q9HD36); test: TR3 peptide-Bcl-B binding displacers, biochemical primary FP assay, phenotype converters (AID 1240); conditions: GST-Bcl-B / FITC-TR3 peptide fluorescence polarization; stronger effect = higher value; compound at 3.75 mg/L;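 note: 0% = Bcl-B with tracer peptide and DMSO and 100% = tracer peptide lacking Bcl-B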
Chain of UniProt Q9HD36 (Q9HD36 whole entry, looked up): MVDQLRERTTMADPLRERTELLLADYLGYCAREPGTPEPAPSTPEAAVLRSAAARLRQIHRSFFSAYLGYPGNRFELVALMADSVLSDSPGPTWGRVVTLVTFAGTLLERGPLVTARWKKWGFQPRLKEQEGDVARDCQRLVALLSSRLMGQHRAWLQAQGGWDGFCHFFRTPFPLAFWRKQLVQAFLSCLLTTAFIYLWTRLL

Question: How did the displacement turn out when `COc1cccc(NC(=O)C2C(C(=O)O)C3C=CC2C32CC2)c1` (stereo unspecified) was run?
Answer: Its displacement is -7.1%.

Question: Which displacement does the source give for `O=C(Nc1ccccc1)Nc1ccc(C(=O)N2CCOCC2)cc1` here?
Answer: The displacement was -59.6%.

Question: With `NNC(=O)Cc1ccc(C(F)(F)F)cc1[N+](=O)[O-]` as the compound, how does the displacement read?
Answer: Its displacement is -6.5%.

Question: For `O=C(c1ccc(Br)o1)N1CCCCCC1`, which displacement is on record?
Answer: Its displacement is -3.9%.

Question: How did the displacement turn out when `Cc1n[nH]c(C)c1CCC(=O)N/N=C/c1ccc(Cl)cc1Cl` was run?
Answer: Its displacement is -1.5%.

Question: Which displacement does the source give for `O=C(/C=C\c1ccccc1)Nc1ccc(NC(=O)c2ccco2)cc1` here?
Answer: Its displacement is 9.7%.

Question: `COc1ccc(N(CC(=O)NCCc2ccccc2)S(C)(=O)=O)cc1` was tested. Which displacement did it give?
Answer: Its displacement is 3.5%.

Question: How did the displacement turn out when `Cc1cc(OCC(=O)Nc2ccc(Br)cn2)cc(C)c1Cl` was run?
Answer: The displacement was 5.4%.

Question: How did the displacement turn out when `CCOC(=O)c1c(NC(=O)c2cccs2)sc2c1CCC(C)C2` (stereo unspecified) was run?
Answer: The displacement was 8.4%.

Question: Which displacement does the source give for `COc1cccc(C(=O)Nc2ccc(-c3cnc(-c4ccc(NC(=O)c5cccc(OC)c5)cc4)nc3)cc2)c1` here?
Answer: The displacement was 8.7%.

Question: For `Cc1ccc(S(=O)(=O)Nc2c(C)c(Cl)c(O)c(Cl)c2C)cc1`, which displacement is on record?
Answer: Its displacement is 9.8%.

Question: Which displacement does the source give for `CCC(=O)c1ccc(OCC(O)CN2CCCC2)c(OC)c1` (stereo unspecified) here?
Answer: The displacement was -2.6%.

Question: How did the displacement turn out when `Cc1cccc2c(Nc3ccc(S(N)(=O)=O)cc3)c3ccc([N+](=O)[O-])cc3nc12` was run?
Answer: The displacement was -9.3%.

Question: For `COc1cc(OC)cc(C(=O)N2CCN(C(=O)C(c3ccccc3)c3ccccc3)CC2)c1`, which displacement is on record?
Answer: The displacement was -16.2%.

Question: With `CS(=O)(=O)N(Cc1ccc(C(=O)N[C@@H]2CCCC[C@H]2O)cc1)c1ccccc1` as the compound, how does the displacement read?
Answer: The displacement was -5%.

Question: `Cc1ccccc1C(=O)NN1CCOCC1` was tested. Which displacement did it give?
Answer: Its displacement is 4.4%.

Question: For `CCOc1ccccc1N1CCN(C(=O)C(F)(F)F)CC1`, which displacement is on record?
Answer: The displacement was 6.1%.

Question: How did the displacement turn out when `Cc1cccc(NC(=O)C2CCCC2)n1` was run?
Answer: The displacement was -0.1%.

Question: `C[n+]1cn(Cc2ccccc2)c2c(=O)[nH]c(N)nc21` was tested. Which displacement did it give?
Answer: Its displacement is 4.4%.

Question: For `CCOc1ccc(NC(=O)c2cc(Cl)ccc2[N+](=O)[O-])cc1`, which displacement is on record?
Answer: Its displacement is 7.8%.

Question: With `COC(=O)c1cn(C(=O)c2ccc(-c3ccccc3)cc2)c2ccccc12` as the compound, how does the displacement read?
Answer: The displacement was -0.2%.

Question: How did the displacement turn out when `CCOc1ccccc1NC(=O)c1cc(C(=O)OC)cc([N+](=O)[O-])c1` was run?
Answer: Its displacement is -7.1%.

Question: How did the displacement turn out when `COc1ccc(Cl)cc1NS(=O)(=O)c1cccc([N+](=O)[O-])c1` was run?
Answer: The displacement was 72.8%.

Question: Which displacement does the source give for `COc1ccc(C2/C(=C(\O)c3ccccc3)C(=O)C(=O)N2CCCC(=O)O)cc1` (stereo unspecified) here?
Answer: Its displacement is -9.5%.

Question: Which displacement does the source give for `COc1ccc(CNCc2cc(OC)c(O)c(OC)c2)cc1` here?
Answer: The displacement was -13.3%.

Question: With `Cc1ccc(NC(=O)c2ccc(-c3ccc(Cl)cc3)o2)c([N+](=O)[O-])c1` as the compound, how does the displacement read?
Answer: The displacement was 9%.

Question: `O=c1c(-c2ccccc2)coc2c(CN3CCCCCC3)c(O)ccc12` was tested. Which displacement did it give?
Answer: Its displacement is -11.5%.

Question: `O=C(Nc1ccc([N+](=O)[O-])cn1)C(c1ccccc1)c1ccccc1` was tested. Which displacement did it give?
Answer: Its displacement is 14.5%.

Question: `O=C(O)CN1C(=O)S/C(=C\c2ccccc2O)C1=O` was tested. Which displacement did it give?
Answer: Its displacement is -6%.

Question: How did the displacement turn out when `COc1ccc(N2C(=O)C3ON(c4ccccc4)C(c4ccncc4)C3C2=O)cc1` (stereo unspecified) was run?
Answer: The displacement was -5.7%.

Question: With `CCOc1cc(/C=N/N=C(N)N)ccc1OCc1ccccc1` as the compound, how does the displacement read?
Answer: The displacement was 8.4%.

Question: With `O=C1OC(c2cccc(Cl)c2)=N/C1=C\c1ccc(OC(=O)c2cccc([N+](=O)[O-])c2)cc1` as the compound, how does the displacement read?
Answer: The displacement was 71.9%.

Question: `CC(=O)Nc1ccc(-c2nc(-c3ccccc3)c(-c3ccccc3)[nH]2)cc1` was tested. Which displacement did it give?
Answer: The displacement was -1.3%.

Question: For `Cc1nc(SCN2C(=O)c3ccccc3C2=O)n[nH]1`, which displacement is on record?
Answer: The displacement was 16.5%.

Question: With `CC1CC(Nc2ccccc2)c2ccccc2N1C(=O)c1cccc(Br)c1` (stereo unspecified) as the compound, how does the displacement read?
Answer: The displacement was 5.6%.

Question: `Cc1cc(/C=N/NC(=O)CC#N)c(C)n1-c1ccc(F)cc1` was tested. Which displacement did it give?
Answer: Its displacement is -2.9%.

Question: Which displacement does the source give for `CC1(C)Cc2c(sc3nc(CC(N)=O)n(Cc4ccccc4)c(=O)c23)CO1` here?
Answer: Its displacement is -6.5%.

Question: Which displacement does the source give for `COc1cc(/C=C2\C(=O)NN(c3ccccc3)C2=O)cc(Br)c1OCC(=O)O` here?
Answer: The displacement was 10.3%.

Question: With `CC(C)NC(=O)COc1cccc(Cl)c1` as the compound, how does the displacement read?
Answer: The displacement was -4.6%.

Question: How did the displacement turn out when `O=C(O)c1ccc(-c2nc(-c3ccccc3)c(-c3cccs3)[nH]2)cc1` was run?
Answer: Its displacement is -18.6%.

Question: How did the displacement turn out when `COc1ccc(N=C2SC(C(=O)N3CCN(c4ccc(F)cc4)CC3)CC(=O)N2C)cc1` (stereo unspecified) was run?
Answer: The displacement was -5.5%.

Question: For `O=C(O)/C=C/C(=O)NNC(=O)c1cc(O)cc(O)c1`, which displacement is on record?
Answer: The displacement was 3.6%.

Question: How did the displacement turn out when `COc1cc(/C=C(\C#N)C(=O)Nc2ccc(F)cc2)ccc1O` was run?
Answer: Its displacement is -17.3%.

Question: With `OC(COc1ccccc1Cl)CN1CCN(CC(O)COc2ccccc2Cl)CC1` (stereo unspecified) as the compound, how does the displacement read?
Answer: Its displacement is 8.1%.

Question: With `Nc1[nH]n(-c2ccccc2)c(=O)c1N=Nc1ccc2[nH]c(=O)[nH]c2c1` as the compound, how does the displacement read?
Answer: The displacement was 5.1%.

Question: How did the displacement turn out when `Cc1cc(C)nc(SCC(=O)Oc2ccc3oc(=O)cc(C)c3c2)n1` was run?
Answer: Its displacement is -5.2%.

Question: Which displacement does the source give for `CN(C)CC#CC(O)(c1ccccc1)c1ccccc1` here?
Answer: The displacement was 4.8%.

Question: `CC(C)CNC(=O)c1cccc(NC(=O)c2ccc(Cl)c([N+](=O)[O-])c2)c1` was tested. Which displacement did it give?
Answer: The displacement was 13.8%.

Question: For `O=C(CCc1ccccc1)Nc1cccc(I)c1`, which displacement is on record?
Answer: Its displacement is -15.6%.

Question: `O=C1c2ccc(-c3nc4ccccc4c(=O)o3)cc2C(=O)N1c1ccc(Cl)cc1` was tested. Which displacement did it give?
Answer: Its displacement is 2%.

Question: With `COc1ccc2occ(C(=O)c3ccc([N+](=O)[O-])cc3)c2c1` as the compound, how does the displacement read?
Answer: Its displacement is 9.6%.

Question: For `O=C(Cn1c2ccccc2c(=O)c2ccccc21)N/N=C/c1cc([N+](=O)[O-])ccc1N1CCCC1`, which displacement is on record?
Answer: The displacement was 73.6%.

Question: With `CCCOc1ccc(C(=O)Nc2ccc(I)cc2Cl)cc1` as the compound, how does the displacement read?
Answer: The displacement was 18.1%.

Question: `COc1ccc(C(C)NC(=O)c2ccc(OC)c(OC)c2)cc1` (stereo unspecified) was tested. Which displacement did it give?
Answer: The displacement was 10.1%.

Question: Which displacement does the source give for `COc1ccc(N(CC(=O)N/N=C(\C)c2ccccc2)S(=O)(=O)c2ccccc2)cc1Cl` here?
Answer: Its displacement is -0.9%.

Question: Which displacement does the source give for `Cc1ccc(-c2nc3ccccc3s2)cc1NC(=S)NC(=O)c1ccco1` here?
Answer: Its displacement is 11%.
